From article PMC4336329 (PLoS ONE, 2015)
In all, about 310,000 compounds went through this assay and about 2,200 (0.71%) showed an effect of 50% or more. Effects have a minus sign here. The list shows a part of the results.

biological target: human ether-à-go-go-related gene (hERG) potassium channel (human, UniProt Q12809); test: primary screen, population patch clamp on CHO cells stably expressing hERG
Sequence (Q12809 whole entry, looked up): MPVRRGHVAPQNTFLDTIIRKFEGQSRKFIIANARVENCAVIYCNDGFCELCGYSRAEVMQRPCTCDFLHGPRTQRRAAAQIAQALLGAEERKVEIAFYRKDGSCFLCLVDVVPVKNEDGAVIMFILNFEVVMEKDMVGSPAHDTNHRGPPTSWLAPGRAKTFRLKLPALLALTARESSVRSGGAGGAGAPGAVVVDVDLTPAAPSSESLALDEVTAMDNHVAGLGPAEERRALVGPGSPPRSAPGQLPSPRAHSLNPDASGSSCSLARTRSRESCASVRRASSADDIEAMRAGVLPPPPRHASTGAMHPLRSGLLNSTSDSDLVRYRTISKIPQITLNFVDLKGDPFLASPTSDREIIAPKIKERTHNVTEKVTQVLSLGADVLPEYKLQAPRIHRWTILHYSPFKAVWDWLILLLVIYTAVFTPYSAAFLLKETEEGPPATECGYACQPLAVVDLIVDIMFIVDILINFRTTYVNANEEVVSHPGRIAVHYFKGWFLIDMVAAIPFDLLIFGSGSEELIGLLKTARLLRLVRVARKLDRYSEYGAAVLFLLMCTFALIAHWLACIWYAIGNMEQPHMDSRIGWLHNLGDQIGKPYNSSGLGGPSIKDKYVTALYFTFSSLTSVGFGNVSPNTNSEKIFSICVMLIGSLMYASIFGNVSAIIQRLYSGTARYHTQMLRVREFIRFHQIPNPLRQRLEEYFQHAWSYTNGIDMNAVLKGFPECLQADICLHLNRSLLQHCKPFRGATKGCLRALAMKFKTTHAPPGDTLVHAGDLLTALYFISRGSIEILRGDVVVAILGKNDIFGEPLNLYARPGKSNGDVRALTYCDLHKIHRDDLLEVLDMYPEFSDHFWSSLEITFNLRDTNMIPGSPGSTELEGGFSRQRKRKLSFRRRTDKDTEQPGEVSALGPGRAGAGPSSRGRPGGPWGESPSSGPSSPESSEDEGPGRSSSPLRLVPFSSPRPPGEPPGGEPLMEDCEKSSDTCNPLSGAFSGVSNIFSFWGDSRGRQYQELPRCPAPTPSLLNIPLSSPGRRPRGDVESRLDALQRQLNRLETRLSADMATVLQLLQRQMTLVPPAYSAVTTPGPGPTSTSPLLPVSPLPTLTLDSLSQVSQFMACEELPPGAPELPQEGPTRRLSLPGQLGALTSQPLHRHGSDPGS

Structure (SMILES)	hERG current change (%, negative = inhibition) at 1uM [%]
O=C(CSc1nnc(COc2ccccc2)o1)N1CCCCC1	8.16
CC1CCN(C(=O)C2CCN(CCCc3ccccc3)CC2)CC1.O=C(O)C(=O)O	-23.5
Cc1nnc(N/N=C/c2ccco2)n1N	6.72
O=C(O)c1ccc(CSc2nc3ccccc3c(=O)n2-c2ccccc2)cc1	9.54
CCOC(=O)c1nn(-c2ccc(F)cc2)c(=O)c2c(N)scc12	11.3
O=C(CNCc1ccccc1)Nc1ccc(F)cc1	-3.84
CC(NC(=O)c1ccc(F)cc1)C(=O)NC1=NCCS1 (stereo not shown)	15.3
COc1ccc(NC(=O)CSc2ccccn2)cc1OC	10.2
O=C(Cn1ncc2c(=O)oc3ccccc3c21)N(Cc1ccco1)C1CCCCC1	6.15
COc1ccc(CNc2nc3nc(C)c(Cl)c(=O)n3[nH]2)cc1	9.89
COc1ccc([C@@H]2[C@@H]3C(=O)N(C(C)(C)C)C(=O)[C@@H]3[C@]3(Cc4ccccc4)C(=O)N(c4cccc(F)c4)C(=O)N23)cc1	6.77
CCOc1ccccc1CN1CCN(Cc2cc(=O)c3ccccc3[nH]2)CC1CCO (stereo not shown)	-29.6
COc1cc(OC)c(C(=O)Nc2ccncc2)cc1OC	17.5
O=c1c2ccccc2nc2n1CCCCN2	16.6
COc1cccc(-n2nnc3c(=O)n(CC(=O)N4CCCc5ccccc54)cnc32)c1	-6.28
Cn1ncc(Cl)c1C(=O)Nc1cccc(Cl)c1	-0.311
Cc1n[nH]c(C)c1CCN(C)Cc1cn(C)nc1-c1ccc2c(c1)OCCO2	-0.959
Cc1sc2nc(CN3CCOCC3)[nH]c(=S)c2c1C	-10.4
CCC(=O)Nc1cc(C(=O)OCC(=O)c2ccc(Cl)cc2Cl)ccc1C	4.84
CN(C)C=O.Cc1cc(C)nc(NC(=O)CSc2nc3cc(Cl)ccc3s2)n1	-2.11
COc1ccc(Nc2nc(CC(C)=O)ns2)cc1	15.9
Cc1ccc2occ(/C=N/NC(=O)c3ccc(O)cc3)c(=O)c2c1	-5.24
O=C1CC(c2ccc(S(=O)(=O)N3CCN(c4ccccc4)CC3)cc2)CN1 (stereo not shown)	11.1

Structure (SMILES)	hERG current change (%, negative = inhibition) at 1uM [%]
Cc1nn(-c2ccccc2)nc1CNC(=O)C1CC1	14.4
CCOC(=O)Cn1c2[n+](c3ccccc31)CC(O)CS2.[I-] (stereo not shown)	13.6
COc1ccc(CNS(=O)(=O)c2ccc3c(c2)N(C(C)=O)CCO3)cc1	8.62
COC(=O)c1c(NC(=O)CN2CCC3(O)CCCCC3C2c2cc(OC)ccc2OC)sc(C)c1C (stereo not shown)	10.6
CC(C)c1ccc(/C=N/NC(=O)C2CCCC2)cc1	10.2
CCc1nc2c(cnn2-c2ccc(Cl)cc2)c(=O)n1-c1ccc2c(c1)OCCO2	7.16
Cc1cc(C)n(C(=O)c2ccccc2[N+](=O)[O-])n1	20.1
COc1ccc(N(CC(=O)Nc2ccccc2SC)S(C)(=O)=O)cc1OC	7.56
CCc1sc(C(=O)NCCc2ccc(S(N)(=O)=O)cc2)cc1Br	11.3
C[N+](C)(C)CC(O)CC(=O)O.[Cl-] (stereo not shown)	2.32
CC(C)C(=O)N1CCC(n2nccc2NC(=O)CCc2ccccc2)CC1	7.27
COc1ccc(Nc2nccc(N(C)C)c2C#N)cc1	14.5
CC1=C(CC[C@@H](C)CO)OC2CC3C4CCC5CC(O)CCC5(C)C4CC(=O)C3(C)C12 (stereo partly shown)	9.85
COc1ccc([C@H]2CC(=O)C=C(c3ccc4c(c3)OCO4)C2)cc1	3.92
COc1ccc(Nc2oc(-c3cccs3)nc2C#N)cc1	12.1
N#Cc1ccccc1OCC(=O)OCC(=O)c1ccc[nH]1	8.07
CN(C)C=Nc1ncc2c3ccccc3n(CCN(C)C)c2c1C#N	-2.27
Cc1c(Br)c(C(N)=O)nn1C	11.8
COc1ccc(-c2cc(C)no2)cc1S(=O)(=O)N1CCN(c2ccc([N+](=O)[O-])cc2)CC1	-42
CCOc1cccc(/C=N/N2C(=O)CSC2=S)c1O	5.55
COc1ccc(OC)c(C(=O)NC2CCSc3ccccc32)c1 (stereo not shown)	15.9
COc1ccccc1OCCCCOc1ccccc1F	14.6
CCOc1ccc(CN2C(=O)CCC2(C)C(=O)NCc2cccnc2)cc1 (stereo not shown)	-9.1

Structure (SMILES)	hERG current change (%, negative = inhibition) at 1uM [%]
COC(=O)c1c(CSc2ccc(Cl)cc2)noc1C(=O)NCc1ccco1	11.2
Cc1ccc(S(=O)(=O)NCCC(=O)N2CCN(C/C=C/c3ccccc3)CC2)cc1	3.89
CCOC(=O)N1CCC(N2Cc3cccc(C(=O)Nc4ccc(F)cc4)c3C2=O)CC1	-36.3
CCOC(=O)c1sc(NC(=O)c2ccc(S(=O)(=O)N(C)C)cc2)cc1C	12.5
C=CCSC1=C(C#N)C(c2cc(Br)c(O)c(OC)c2)CC(=O)N1 (stereo not shown)	2.7
O=C(NCCC1CCCCN1S(=O)(=O)c1cccs1)C(=O)Nc1ccccc1F (stereo not shown)	1.95
Cc1ccc(NC(=O)C(C)Sc2nnc(-c3cccnc3)o2)cc1 (stereo not shown)	14
COc1ccc(-n2ncc(C(=O)NC3CC3)c2C2CCN(C(=O)OC(C)(C)C)CC2)cc1	7.38
Cc1ccc(/C(O)=C2\C(=O)C(=O)N(C)C2c2ccc([N+](=O)[O-])cc2)cc1 (stereo not shown)	12.2
Cc1ccc(/C=C/C(=O)c2ccc(C)cc2)cc1	19.2
CCN(c1cccc(C)c1)S(=O)(=O)c1cc2c3c(c1)CCC(=O)N3CCC2	4.65
CCOc1ccc(C(=O)NCC(=O)NCCCSc2ccccc2)cc1OCC	3.75
CCC(=O)Nc1ccc(-c2nnc(SCc3ccc(C(=O)Nc4nccs4)cc3)n2CC)cc1	13.9
CCS(=O)(=O)c1ccc2oc(Nc3ccc(OC)cc3)nc2c1	9.43
O=C(CCCc1ccccc1)NCCS(=O)(=O)N1CCN(c2ccccc2F)CC1	-3.51
O=C(Nc1cccn2ncnc12)c1ccc(Cl)cc1Cl	7.12
CCOC(=O)C1CCCN(C(=O)Nc2ccccc2)C1 (stereo not shown)	-1.3
NS(=O)(=O)c1cccc(NC(=O)CSc2nc3ccccc3[nH]2)c1	9.28
COc1cccc(-n2c(Cc3cc(=O)[nH]c(=O)[nH]3)nnc2SCC(=O)NC2CCCCC2)c1	9.6
O=C(C1CCCCN1S(=O)(=O)c1ccccc1[N+](=O)[O-])N1CCCC1 (stereo not shown)	8.24
O=C(NCCCc1ccccc1)c1cccc([N+](=O)[O-])c1	6.54
CCCCOc1ccc(NC(=O)C2OC3OC(C)(C)OC3C3OC(C)(C)OC23)cc1 (stereo not shown)	9.6
COc1cccc(Cn2nc(C(=O)O)c3ccccc3c2=O)c1	13.8

Structure (SMILES)	hERG current change (%, negative = inhibition) at 1uM [%]
C=C(C)c1cccc(C(C)(C)NC(=O)NC2CCN(Cc3ccccc3)CC2)c1.Cl	-32.2
Cc1noc(C)c1S(=O)(=O)N1CCC(C(=O)c2ccccc2)CC1	-9.1
CC(C)(C)C(=O)Nc1nnc(Cc2ccccc2)s1	10.4
Cc1ccc(-n2nnc(-c3cccnc3Cl)n2)cc1	21
COc1cccc(/C=N/Nc2nn3cnnc3c3ccccc23)c1O	1.31
O=C(N/N=C/c1cn(-c2cccs2)nc1-c1ccccc1)c1ccccc1Cl	0.0242
Cc1c(CC(=O)NCCCC(=O)O)c(=O)oc2cc3occ(-c4ccccc4)c3cc12	6.23
CCCCNC(=O)C1CCCN1C(=O)Nc1cccc(OC)c1 (stereo not shown)	11.2
O=C(NNC(=S)NC(=O)c1ccc(Br)cc1)c1ccc([N+](=O)[O-])cc1	15.6
COc1cccc(NC(=O)Cn2nnc(C(=O)Nc3ccccc3)c2N)c1	5.52
CCOc1ccccc1/C=N/NC(=O)CNC(=O)c1cccs1	-3.7
COc1ccccc1-c1nnc(SCC(=O)NC2CCCCC2)n1C	19.7
Cc1ccc(S(=O)(=O)Nc2c(C)nn(C)c2C)cc1C	17.9
[O-]/[N+](=C\c1cccc(Br)c1)c1ccccc1	14.6
COc1cccc(C#Cc2c(C=O)n(C)c3ccccc23)c1	11.3
O=C(CCn1c(=O)oc2ccccc21)N1CCN(c2ccccc2F)CC1	-3.11
Cc1cccc(N2CCN(C(=O)C3CC(=O)N(C4CCCC4)C3)CC2)c1C (stereo not shown)	-19.4
CC1CC(C)CN(C(=O)COC(=O)c2ccc3c(c2)OCO3)C1 (stereo not shown)	-4.84
Cc1cc(C)c2c(=O)cc(C(F)(F)F)oc2n1	19.9
CCN1CCN(CNC(=O)c2cnccn2)CC1	16.1
Cc1ccc(C(O)Cn2nc(C)cc2C)cc1 (stereo not shown)	7.45
Fc1ccc(/C=N/Nc2nn[nH]n2)cc1	7.47
